# Data taken from paper PMC4336329 (PLoS ONE, 2015).
# Among all 310,000 compounds or so, about 14,000 (4.5%) showed an effect of 50% or more. The effect is printed as a negative number. The list shows a part of the results.
# Target: human ether-à-go-go-related gene (hERG) potassium channel (human, UniProt Q12809)
# Test: primary screen, population patch clamp on CHO cells stably expressing hERG
# 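Also: peak tail current of the secondary pulse compared with the same well before compound.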
# human ether-à-go-go-related gene (hERG) potassium channel, sequence (Q12809 whole entry, looked up): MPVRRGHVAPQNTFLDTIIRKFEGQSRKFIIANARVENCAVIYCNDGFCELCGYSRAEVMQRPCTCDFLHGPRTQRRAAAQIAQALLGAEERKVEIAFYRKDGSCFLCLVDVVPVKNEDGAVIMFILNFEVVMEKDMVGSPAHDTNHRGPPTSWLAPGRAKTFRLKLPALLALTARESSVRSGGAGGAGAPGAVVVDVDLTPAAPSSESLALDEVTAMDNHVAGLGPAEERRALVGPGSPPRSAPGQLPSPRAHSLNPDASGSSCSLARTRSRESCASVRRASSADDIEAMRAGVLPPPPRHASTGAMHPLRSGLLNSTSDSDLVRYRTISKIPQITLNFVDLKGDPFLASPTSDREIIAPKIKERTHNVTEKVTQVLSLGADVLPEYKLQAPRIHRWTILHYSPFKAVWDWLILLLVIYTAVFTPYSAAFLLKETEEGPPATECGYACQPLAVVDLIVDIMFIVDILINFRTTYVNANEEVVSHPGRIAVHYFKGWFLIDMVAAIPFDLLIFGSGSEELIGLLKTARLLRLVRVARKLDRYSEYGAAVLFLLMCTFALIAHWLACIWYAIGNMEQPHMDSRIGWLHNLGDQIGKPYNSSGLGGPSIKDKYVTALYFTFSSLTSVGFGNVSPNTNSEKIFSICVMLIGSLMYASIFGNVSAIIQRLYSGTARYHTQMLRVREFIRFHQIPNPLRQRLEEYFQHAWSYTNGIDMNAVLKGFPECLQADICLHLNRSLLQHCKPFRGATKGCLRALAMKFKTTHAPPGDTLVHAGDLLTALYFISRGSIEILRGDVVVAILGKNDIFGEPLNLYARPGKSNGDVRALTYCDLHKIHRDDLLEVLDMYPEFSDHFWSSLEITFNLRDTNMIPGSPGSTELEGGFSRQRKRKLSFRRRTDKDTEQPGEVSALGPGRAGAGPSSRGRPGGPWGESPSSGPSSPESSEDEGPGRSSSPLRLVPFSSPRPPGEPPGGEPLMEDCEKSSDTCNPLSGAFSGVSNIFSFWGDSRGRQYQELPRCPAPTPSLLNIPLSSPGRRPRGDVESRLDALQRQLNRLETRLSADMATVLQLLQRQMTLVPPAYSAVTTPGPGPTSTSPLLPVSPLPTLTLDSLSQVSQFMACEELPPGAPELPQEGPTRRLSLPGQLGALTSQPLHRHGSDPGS
row,SMILES,"hERG current change (%, negative = inhibition) at 10uM [%]"
1,O=C(CN1CCN(C(=O)CNC(=O)c2ccc3c(c2)OCO3)CC1)Nc1cccc(F)c1,-20.7
2,Cc1ccc(-c2nc3ncccc3o2)cc1NC(=O)C(C)C,14.9
3,CCOc1ccc(OCC)c(S(=O)(=O)n2cc(C)nc2CC)c1,65.8
4,CC(=O)NC(Cc1ccccc1)C(C)=O (centres unmarked),3.21
5,COCCCNC(=O)/C=C/c1ccc(Cl)cc1Cl,-12.2
6,COc1ccc(/C=N/NC(=O)c2ccc(CN3C(=O)c4cccc5cccc3c45)cc2)cc1O,4.73
7,O=C(Nc1cccc(S(=O)(=O)Nc2ccccc2F)c1)c1ccc2ccccc2n1,2.06
8,CCN1/C(=c2/s/c(=C3/C(=O)N(c4ccccc4)N=C3C)n(CC)c2=O)C=Cc2ccccc21,-8.31
9,CCCc1nn(C)c2c1C(c1cccnc1)C(C#N)=C(N)O2 (centres unmarked),11.8
10,COc1ccc(OC)c(NC(=O)c2ccc3c(c2)CCN3S(C)(=O)=O)c1,4.31
11,COc1ccccc1NS(=O)(=O)c1cccc(C(=O)N/N=C(\C)c2ccc3c(c2)OCCO3)c1,-7.15
12,O=C(COC(=O)CCC(=O)c1ccccc1)NNC(=O)c1ccc(Cl)cc1,-2.27
13,CCCC(=O)Nc1nc(C)c(C(C)=O)s1,-0.293
14,Cc1ccn(C(=O)c2cc3c(C)nn(-c4ccccc4)c3s2)n1,14.5
15,S=c1nccc(-c2cc(Cl)sc2Cl)[nH]1,-4.38
16,CCOC(=O)c1cc2c(=O)[nH]c(C(Cl)(Cl)Cl)nc2o1,9.59
17,COc1ccc(NC(=O)CCSc2nc(C)cs2)cc1,11.6
18,O=C(O)C1CC(c2ccccc2)=Nc2ccccc2S1 (centres unmarked),1.43
19,COc1ccc(-c2nnc(SCC(=O)Nc3ccc4c(c3)OCCO4)n2N)cc1OC,4.82

row,SMILES,"hERG current change (%, negative = inhibition) at 10uM [%]"
1,CC(C)c1ccc(-c2nc(N3CCCCC3)[nH]c(=O)c2C#N)cc1,4.05
2,O=C(COc1ccc(Br)cc1Cl)NC(=S)Nc1ccccn1,22.8
3,CCC(=O)Nc1c(-c2ccc(C)cc2)c(=O)c2ccccc2n1C,4.53
4,Cc1ccc(NC(=O)CSCC(=O)N(C)CC(=O)Nc2cccc(F)c2)cc1,-44.6
5,O=C(CCl)N1N=C(c2cccs2)CC1c1ccco1 (centres unmarked),-2.08
6,CCOc1ccc(-c2[nH]ncc2-c2ccc(OC)c(OC)c2)c(O)c1,-2.9
7,CC(NC(=O)CCNC(=O)c1ccco1)c1ccc(F)cc1 (centres unmarked),12.3
8,O=C1CCC(C(=O)N2CCc3ccccc3C2)CN1CCCN1CCOCC1 (centres unmarked),7.89
9,COc1cccc(/C=N/n2c(-c3cccs3)n[nH]c2=S)c1,10.6
10,C/C(=N\N1CCCCC1c1cccnc1)c1c(O)n(C2CCCCC2)c(=S)[nH]c1=O (centres unmarked),0.0734
11,C/C(=N\Nc1c([N+](=O)[O-])c(C)nn1C)c1ccc(F)cc1F,2.54
12,O=C(COc1ccc(Cl)cc1)Nc1nnc(-c2ccc3c(c2)CCCC3)o1,17.1
13,O=C(NC1CCN(C(=O)NCc2ccccc2)CC1)c1cccc(F)c1,0.922
14,COc1ccc(Cc2noc(CN3CCNC(=O)CC3)n2)cc1OC,6.36
15,O=[N+]([O-])c1cccc(-c2ccc(/C=N/Nc3nc(N4CCCCC4)nc(N4CCCCC4)n3)o2)c1,8.33
16,O=C(NCc1ccc(Cl)cc1)C1CCC(=O)N(C2CCCCCC2)C1 (centres unmarked),-17
17,CCCn1nnc(NC(=O)/C=C/c2cc(Br)ccc2OC)n1,6.21
18,O=C1c2ccccc2C(=O)N1CN(C(=O)COc1ccccc1)c1ccccc1,4.99
19,Cc1cnc(CNC(=O)C2CCC(=O)N(Cc3ccc(Cl)cc3)C2)[nH]1 (centres unmarked),18.9

row,SMILES,"hERG current change (%, negative = inhibition) at 10uM [%]"
1,O=S(=O)(c1ccc(Br)cc1)c1nc(-c2ccccc2)oc1NCCN1CCOCC1,8.43
2,c1ccc(Cn2c(SCc3nc4ccccc4s3)nnc2-c2ccco2)cc1,-34.1
3,COc1ccc(C)cc1S(=O)(=O)Nc1ccc2c(c1)OCCO2,17.6
4,Cc1ccc(C2(c3noc(CN(C)CCCN4CCOCC4)n3)CCCC2)cc1,-33.9
5,COC(=O)/C=c1/sc2nc3ccccc3n2c1=O,3.38
6,Cc1cccc(N/N=C/c2ccc(C)s2)c1,19.7
7,O=C(COC(=O)[C@@H]1CCCN1S(=O)(=O)c1ccc(Cl)cc1)NCC(F)(F)F,11.7
8,Cc1ccc(NC(=O)COc2ccccc2C(=O)NCc2ccccc2)cc1,-31.1
9,COc1ccc(-c2ccc(N)cn2)cn1,12.5
10,COC(=O)c1ccc(-n2c(C)cc(C(=O)COC(=O)CC3Sc4ccccc4NC3=O)c2C)cc1 (centres unmarked),28.5
11,CCCC(c1nnnn1Cc1cccs1)N1CCN(C2CCCC2)CC1.Cl (centres unmarked),-29
12,CCN1C(=O)C2(C(C(=O)c3cc4ccccc4o3)=C(O)C(=O)N2CCCN2CCOCC2)c2ccccc21 (centres unmarked),15.3
13,COc1cc(C2C(C#N)=C(N)Oc3cc(C)oc(=O)c32)ccc1OC(=O)N1CCOCC1 (centres unmarked),-4.07
14,O=C(O)c1ccc(/C=C2\SC(=S)N(NC(=O)c3ccc(Br)cc3)C2=O)cc1,9.25
15,CS(=O)(=O)NN1C(=O)c2ccccc2NC1c1ccccc1 (centres unmarked),12.8
16,O=P(c1ccccc1)(c1ccccc1)C(c1ccco1)N1CCOCC1 (centres unmarked),9.93
17,Cc1ccc(CS(=O)(=O)c2ccc(C(=O)N3CCN(c4ccccn4)CC3)cc2[N+](=O)[O-])cc1,-43.9
18,CC1CC(C)CN(C(=O)c2ccc(Br)c(S(=O)(=O)N3CCOCC3)c2)C1 (centres unmarked),-26.6
